In patent US20160089386A1, “TREATING AND PREVENTING DISEASE WITH TMA AND TMAO LOWERING AGENTS” (The Cleveland Clinic Foundation, priority 2014, published 2016):

How the values were obtained:
[1] = tested on: platelet aggregation; experiment: Platelet aggregometry with submaximal ADP stimulation in human volunteers
Experimental: (§1) In further works, human volunteer subject were enrolled in the following study. Individuals were examined at baseline for plasma TMAO and blood drawn for platelet aggregometry studies with submaximal ADP stimulation. Subjects were examined both naïve to aspirin, and then at different time after taking chronic aspirin (81 mg daily) for at least a month. […] After washout period of at least 4 months with no choline supplement, subjects were placed on ASA daily (81 mg) and after a month of ASA, the baseline TMAO level and platelet aggregmetry measure monitored. Then, choline supplementation daily was again resumed.
(§2) Choline supplement was used in subjects (choline bitartrate, 2×500 mg/day=choline 2×205.7 mg/day), for 2 month period. Samples were collected at baseline and monthly blood were draw (1,2 months). Plasma levels of TMAO were measured and platelet aggregation in response to 5 uM ADP were measured.

[2] = tested on: microbial TMA lyase; experiment: TMA lyase activity of Proteus mirabilis (PM) lysate; assay type: biochemical
Experimental: Using PM lysate (PM that is lysed in a French press to break open the cell wall and release enzyme contents) as the enzyme source, the TMA lyase activity (TMA producing activity) was examined in incubations with either d9(trimethyl)choline as substrate, or […] (GPC) as substrate. […] A further examination of the impact of ASA on TMA lyase activity by PM lysate was undertaken. Three mg of PM lysate was incubated with 25 uM choline and 25 uM choline(d9) in 2 ml PBS at 37 C for 20 hours. In FIG. 7, the dotted lines at 81 mg and 320 mg ASA represent reported steady state plasma levels of aspirin reported at those doses in human subjects. […] In light of this, in some embodiments, enteric coated aspirin or aspirin derivatives that have delayed absorption may be employed to treat disease since they would dissolve in the intestines past the stomach, such that the level of ASA or derivative delivered to the gut lumen will be higher. There exist even longer delayed release formulations of medications that could also be used.

[3] = Plasma TMAO in human volunteers on choline supplementation, before and on chronic aspirin; assay type: in vivo; settings: omnivores, ASA 81 mg daily for a month, then daily choline supplementation
Experimental: as §1, §2

Row | TMA lyase inhibition ([2]; PM lysate 3 mg, 25 uM choline + 25 uM choline(d9), 37 C, 20 hours, at plasma ASA levels anticipated for 320 mg dose) | TMA production from substrate ([2]; PM lysate, d9(trimethyl) GPC as substrate, physiological range of ASA) | Compound | platelet aggregation in response to 5 uM ADP ([1]; vegans, choline bitartrate 2x500 mg/day, 2 months) | rise in platelet aggregation on choline diet ([1]; omnivores, ASA 81 mg daily for a month, then daily choline supplementation) | rise in TMAO on choline diet [3]
1 |  |  | C[N+](C)(C)CCO.O=C([O-])C(O)C(O)C(=O)O (centres unmarked) [choline bitartrate] | significant increase in platelet hyperresponsiveness |  | 
2 | approximately 40% | inhibited TMA production | CC(=O)Oc1ccccc1C(=O)O [ASA, acetylsalicylic acid] |  | blunted | blunted
